Experiments:
mouse PD1 [1] = target: T1, mouse PD1 (mouse, UniProt Q02242 25-288); assay: cell-based or functional assay
T1 sequence (looked up): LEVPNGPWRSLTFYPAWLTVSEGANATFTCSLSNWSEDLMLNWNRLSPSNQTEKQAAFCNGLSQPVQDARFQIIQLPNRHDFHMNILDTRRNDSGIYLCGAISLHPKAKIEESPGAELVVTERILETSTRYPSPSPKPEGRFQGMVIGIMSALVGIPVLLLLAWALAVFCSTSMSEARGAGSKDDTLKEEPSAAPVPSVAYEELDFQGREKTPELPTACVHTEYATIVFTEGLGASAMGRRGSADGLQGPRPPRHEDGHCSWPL

mouse CD20 [2] = target: T2, mouse CD20 (mouse, UniProt P19437 1-291); assay: flow cytometry on MC38/mCD20 cells
T2 construct: whole, on cells; also called mCD20; murine CD20
T2 sequence (looked up): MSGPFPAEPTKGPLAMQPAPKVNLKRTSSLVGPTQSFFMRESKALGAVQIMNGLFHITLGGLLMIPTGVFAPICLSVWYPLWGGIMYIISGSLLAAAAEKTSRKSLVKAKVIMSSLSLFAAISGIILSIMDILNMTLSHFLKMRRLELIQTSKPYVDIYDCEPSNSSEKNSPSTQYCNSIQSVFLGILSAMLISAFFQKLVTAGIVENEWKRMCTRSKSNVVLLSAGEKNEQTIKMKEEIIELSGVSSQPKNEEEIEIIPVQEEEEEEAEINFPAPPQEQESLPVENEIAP
Experimental: (§1) Cells (HEK 293, MC38 over-expressing mCD20 or Jurkat over-expressing mPD1) were resuspended in FACS wash (PBS with 1% FBS) at 1×10⁶ cells/mL. The staining was performed in 1×10⁵ cells per well. The antibodies were diluted with a ratio of 1:5 from a starting concentration of 1.3×10⁻⁰⁷ M. The diluted antibodies were then added into the wells containing cells. Cells were stained for 30 min at 2-8° C. and washed twice with FACS wash buffer. APC-conjugated goat anti-human IgG (Jackson Immuno Research, 109-607-003, 1:400) was added to stain the cells for 30 min at 2-8° C. Following washing, cells were fixed in 2% paraformaldehyde for 30 min at 2-8° C. After two washes, stained cells were analyzed using BD LSRFortessa™ FACS instrument. The results were analyzed by FlowJo. FSC/SSC gates were used to select mononuclear cells.

mouse CD20 [3] = target: T2, mouse CD20; assay: flow cytometry on HEK293/mCD20 cells
Experimental: as §1

mouse PD1 [4] = target: T1, mouse PD1; assay: flow cytometry on Jurkat/mPD1 cells
Experimental: as §1

B1: 2 + 1 m20_mPL_3 (Fc fusion)
heavy 1: QVQLQQPGAELVRPGTSVKLSCKASGYTFTSYWMHWIKQRPGQGLEWIGVIDPSDNYTKYNQKFKGKATLTVDTSSSTAYMQLSSLTSEDSAVYFCAREGYYGSSPWFAYWGQGTLVTVSSASTKGPSVFPLAPSSKSTSGGTAALGCLVKDYFPEPVTVSWNSGALTSGVHTFPAVLQSSGLYSLSSVVTVPSSSLGTQTYICNVNHKPSNTKVDKKVEPKSCDGGGGSGGGGS[letters of about 200 residues left out][letters of about 250 residues left out]
heavy 2: QVQLQQPGAELVRPGTSVKLSCKASGYTFTSYWMHWIKQRPGQGLEWIGVIDPSDNYTKYNQKFKGKATLTVDTSSSTAYMQLSSLTSEDSAVYFCAREGYYGSSPWFAYWGQGTLVTVSSASTKGPSVFPLAPSSKSTSGGTAALGCLVKDYFPEPVTVSWNSGALTSGVHTFPAVLQSSGLYSLSSVVTVPSSSLGTQTYICNVNHKPSNTKVDKKVEPKSCDKTHTCPPCPAPEAEGAPSVFLFPPKPKDTLMISRTPEVTCVVVDVSHEDPEVKFNWYVDGVEVHNAKTKPREEQYNSTYRVVSVLTVLHQDWLNGKEYKCKVSNKALPSSIEKTISKAKGQPREPQVCTLPPSRDELTKNQVSLSCAVKGFYPSDIAVEWESNGQPENNYKTTPPVLDSDGSFFLVSKLTVDKSRWQQGNVFSCSVMHEALHNRFTQKSLSLSPGK
light: QIVMSQSPAILSASPGEKVTMTCRARSSVSYIHWYQQKPGSSPKPWIYATSNLASGVPGRFSGSGSGTSYSLTITRVEAEDAATYYCQQWSSKPPTFGGGTKLEIKRTVAAPSVFIFPPSDEQLKSGTASVVCLLNNFYPREAKVQWKVDNALQSGNSQESVTEQDSKDSTYSLSSTLTLSKADYEKHKVYACEVTHQGLSSPVTKSFNRGEC
notes: Knob-into-hole heterodimer, 2 anti-mCD20 Fabs + 1 mPDL1 ectodomain between Fab and Fc
- IC50 (M), luciferase bioassay, 1nM CD3 bsAb (mouse PD1 [1]): 7.7e-10 M
- IC50 (M), luciferase bioassay, 2.5 nM CD3 bsAb (mouse PD1 [1]): 3.16e-10 M
- Max % inhibition, luciferase bioassay, 1nM CD3 bsAb (mouse PD1 [1]): 80%
- Max % inhibition, luciferase bioassay, 2.5 nM CD3 bsAb (mouse PD1 [1]): 74%
- EC50 (mouse CD20 [2]): 3.93 nM
- Max MFI (mouse CD20 [2]): 52900 MFI
- EC50 (mouse CD20 [3]): 15 nM
- Max MFI (mouse CD20 [3]): 28900 MFI
- Max MFI (mouse PD1 [4]): 5630 MFI

B2: 2 + 2 m20_mPL_3 (Fc fusion)
heavy: QVQLQQPGAELVRPGTSVKLSCKASGYTFTSYWMHWIKQRPGQGLEWIGVIDPSDNYTKYNQKFKGKATLTVDTSSSTAYMQLSSLTSEDSAVYFCAREGYYGSSPWFAYWGQGTLVTVSSASTKGPSVFPLAPSSKSTSGGTAALGCLVKDYFPEPVTVSWNSGALTSGVHTFPAVLQSSGLYSLSSVVTVPSSSLGTQTYICNVNHKPSNTKVDKKVEPKSCDKTHTCPPCPAPEAEGAPSVFLFPPKPKDTLMISRTPEVTCVVVDVSHEDPEVKFNWYVDGVEVHNAKTKPREEQYNSTYRVVSVLTVLHQDWLNGKEYKCKVSNKALPSSIEKTISKAKGQPREPQVCTLPPSRDELTKNQVSLSCAVKGFYPSDIAVEWESNGQPENNYKTTPPVLDSDGSFFLVSKLTVDKSRWQQGNVFSCSVMHEALHNRFTQKSLSLSPGKGGGGSGGGGSGGGGSQVQLQQPGAELVRPGTSVKLSCKASGYTFTSYWMHWIKQRPGQGLEWIGVIDPSDNYTKYNQKFKGKATLTVDTSSSTAYMQLSSLTSEDSAVYFCAREGYYGSSPWFAYWGQGTLVTVSSASTKGPSVFPLAPSSKSTSGGTAALGCLVKDYFPEPVTVSWNSGALTSGVHTFPAVLQSSGLYSLSSVVTVPSSSLGTQTYICNVNHKPSNTKVDKKVEPKSCD
light: B1 light
chain: [letters of about 200 residues left out][letters of about 250 residues left out][letters of about 200 residues left out]
notes: Knob-into-hole heterodimer: one arm carries both Fabs, the other both mPDL1 ectodomains
- IC50 (M), luciferase bioassay, 2.5 nM CD3 bsAb (mouse PD1 [1]): 6.5e-11 M
- Max % inhibition, luciferase bioassay, 2.5 nM CD3 bsAb (mouse PD1 [1]): 33%
- EC50 (mouse CD20 [2]): 8.42 nM
- Max MFI (mouse CD20 [2]): 35300 MFI
- EC50 (mouse PD1 [4]): 6.31 nM
- Max MFI (mouse PD1 [4]): 6980 MFI

B3: 2 + 2 m20_mPL_4 (Fc fusion)
heavy: QVQLQQPGAELVRPGTSVKLSCKASGYTFTSYWMHWIKQRPGQGLEWIGVIDPSDNYTKYNQKFKGKATLTVDTSSSTAYMQLSSLTSEDSAVYFCAREGYYGSSPWFAYWGQGTLVTVSSASTKGPSVFPLAPSSKSTSGGTAALGCLVKDYFPEPVTVSWNSGALTSGVHTFPAVLQSSGLYSLSSVVTVPSSSLGTQTYICNVNHKPSNTKVDKKVEPKSCDGGGGSGGGGS[letters of about 200 residues left out][letters of about 250 residues left out]
light: B1 light
notes: Homodimer
- IC50 (M), luciferase bioassay, 1nM CD3 bsAb (mouse PD1 [1]): 1.91e-10 M
- Max % inhibition, luciferase bioassay, 1nM CD3 bsAb (mouse PD1 [1]): 84%
- EC50 (mouse CD20 [3]): 11.3 nM
- Max MFI (mouse CD20 [3]): 30300 MFI
- Max MFI (mouse PD1 [4]): 18900 MFI

Source: patent US20230279153A1 (Regeneron, published 2023)
